The list shows a part of the results. Further columns of the screen follow, without active or inactive calls. The list favours compounds with an active or inconclusive main result.
Assay: hypoxia reporter signal reduction in M. tuberculosis – fluorescence, absorbance growth readout, primary screen (AID 1159583)
Conditions: M. tuberculosis hypoxia-regulated fluorescent reporter, measured here: M. tuberculosis growth (absorbance), stronger effect = higher value, concentration not given here

Structure (SMILES) | growth inhibition [%]
O=C(OCC#CCSc1nnc(-c2ccc(Br)cc2)o1)c1ccco1 | 20.7
Cc1ccc(/C=C/C(=O)N2CCN(Cc3ccccc3)CC2)o1 | 38.1
O=C(Cn1c(=O)cnc2ccccc21)Nc1cccc(S(=O)(=O)N2CCOCC2)c1 | 68.2
CC1=NN(c2ccccc2)C(=O)/C1=C/C=C/C=C/N(C)C | -1.45
COc1ccc(NC(=O)CON=CC(=O)Nc2ccc(C)cc2)c(OC)c1 | 51.8
Cc1cnc(C(=O)NC(C)CCc2ccccc2)cn1 (stereo unspecified) | 24.1
Cc1cc(C)c2sc(N(CCCN(C)C)C(=O)c3ccc(S(=O)(=O)N(C)C4CCCCC4)cc3)nc2c1 | 21.6
CCN(CC)CCCNc1nc2cc(OC)c(OC)cc2c2nc(-c3cccnc3)nn12 | 13.4
CCCn1nnc(NC(=S)NC(=O)c2ccccc2OC)n1 | 75.3
CC(=O)c1ccc2c(c1)c(C#N)c1ccccc1[n+]2[O-] | 16.6
O=S(=O)(O)c1cccc(N=Nc2c(O)ccc3ccccc23)c1 | 7.34
Cn1cc(C=NO)nc2c(=O)n(-c3ccccc3)c(=O)nc1-2 | 7.66
COc1cccc(-c2c(-c3cc(OC)cc(OC)c3)n(C)c3ccc(-c4cnc(N5CCOCC5)nc4)cc23)c1 | 8.05
Oc1ccccc1N=Cc1ccc[nH]1 | 44.8
O=C(NCCc1ccc(Cl)cc1)c1ccc(CNc2c(N3CCOCC3)c(=O)c2=O)cc1 | 76.2
Cc1ccc(C2c3c(C)nn(-c4ccc([N+](=O)[O-])cc4)c3N=C3C(=O)Nc4ccccc4N32)cc1 (stereo unspecified) | 5.47
Cc1nn(-c2ccc(N3CCOCC3)nn2)c(C)c1CCC(=O)N1CCN(C)CC1 | 36.5
CN(C)S(=O)(=O)c1ccc(C(=O)OCC(=O)Nc2ccc3c(c2)OCO3)cc1 | 57.4
COc1ccc(S(=O)(=O)N2CCN(C(=O)C3CC(=O)N(c4ccccc4F)C3)CC2)cc1OC (stereo unspecified) | 61.6
COc1ccc2nc(C)cc(NN=Cc3ccc(F)cc3)c2c1 | 49.7
CC(NC(=S)Nc1ccc(OC(F)F)c(Cl)c1)C(C)(C)C (stereo unspecified) | 50.1
Nc1c(Cl)cc(C2=NCCn3c2c2ccc([N+](=O)[O-])cc2[n+]3[O-])cc1Cl | 25.1

Structure (SMILES) | growth inhibition [%]
CCn1c(O)c(N=NC(=O)c2ccc(CSc3nncn3C)cc2)c2ccccc21 | 16.1
CC1=C(C(=O)Nc2ccccc2)C(c2ccc(C)cc2)N=C(Nc2nc3ccccc3o2)N1 (stereo unspecified) | -20.4
Cc1ccc(S(=O)(=O)N2CCOCC2)cc1C(=O)OCC(=O)NC1CC1 | 61.2
N#Cc1ccc(OCC(=O)N2CCN(S(=O)(=O)c3ccc(Cl)s3)CC2)cc1 | 69.2
C=CCC(CC(=O)NC(CO)Cc1ccccc1)C(=O)NC(COC(=O)C(CC=C)Cc1ccc(F)cc1)Cc1c[nH]c2ccccc12 (stereo unspecified) | 13
O=C(CCSc1nnc(-c2ccccc2)o1)N1CCOCC1 | 12.6
COc1ccc(CNc2nc3nc(C)c(Cl)c(=O)n3[nH]2)cc1 | 54.7
N#CC(=NNc1ccc([N+](=O)[O-])cc1)C(=N)N1CCCCC1 | 5.47
O=C(CSCc1ccc(Cl)cc1)Nc1ccccc1O | 38.9
N#CC1(Nc2ccccc2)C(=O)Nc2ccccc21 (stereo unspecified) | 20.7
O=C(COC(=O)Cc1ccc(Cl)cc1)NCc1cccs1 | 71
NC1=NC(=O)/C(=C\c2ccc(O)c([N+](=O)[O-])c2)S1 | 31
O=C(Nc1cccc(O)c1)c1cccc(C(=O)Nc2cccc(O)c2)c1 | -2.47
COc1ccc(-c2nnc(SCc3nc4ccccc4s3)n2C(C)C)cc1 | 5.66
Cc1cc(C)[n+]2[nH]c(N)c(N=Nc3ccccc3)c2n1 | 18.4
Cc1cnc(C(=O)OCC(=O)Nc2cccc3ccccc23)cn1 | 56.9
CCOc1ccc(N2C(=O)NC(=O)C(=Cc3ccc(N4CCCCC4)o3)C2=O)cc1 | 13.6
Nc1ccc(C2(c3ccc(N)cc3)c3ccccc3-c3ccccc32)cc1 | 7.38
Cc1ccnc2nc(C(=O)Nc3nc4ccccc4s3)nn12 | 23.3
CC(=O)c1c(C)n([O-])c2ccc(C)cc2[n+]1=O | 13.4
Cc1ccc(C(=O)OCC(=O)NC2CCCC(C)C2C)cc1S(=O)(=O)N1CCCCC1 (stereo unspecified) | 60.7
NC(=O)C[C@H](NC(=O)c1ccc(Cl)cc1)C(=O)OCc1ccccc1 | 64

Structure (SMILES) | growth inhibition [%]
COC(=O)CSc1[nH]c2ccc(Br)cc2c1[N+](=O)[O-] | 23.5
CCN(CC)c1ccc2c(-c3ccc(S(=O)(=O)O)cc3S(=O)(=O)[O-])c3ccc(=[N+](CC)CC)cc-3oc2c1 | -32.3
O=C(COC(=O)c1ccc([N+](=O)[O-])o1)Nc1ccc(F)cc1 | 62.1
CCN(CC)CCCNc1nc2cc(OC)c(OC)cc2c2nc(-c3ccccc3)nn12 | 29.9
O=C(O)c1ccc(NN=C/C=C/c2ccc([N+](=O)[O-])o2)cc1 | 41.1
CC1CCCC(C)N1C(=O)COC(=O)c1cccnc1Cl (stereo unspecified) | 76.7
O=C(Nc1ccccc1)Nc1ccno1 | 12.9
Oc1[nH]c2ccc(Br)cc2c1N=NC(=S)N1CCOCC1 | 20
CS(=O)(=O)Nc1ccccc1C(=O)OCC(=O)N1CCC(c2ccccc2)=N1 | 72.4
OCC#CCSc1nnc(-c2cccc3ccccc23)o1 | 28.7
Cc1ccc(C)c(NC(=O)CN(C)C(=O)c2ccc(S(=O)(=O)N3CCCCCC3)cc2)c1 | 65.9
O=C(COC(=O)c1ccccc1O)NC1CCCc2ccccc21 (stereo unspecified) | 64.9
COCc1nnc(NS(=O)(=O)c2ccc([N+](=O)[O-])cc2)s1 | 41.3
CCCCCCC[n+]1ccc(-c2cc[n+](CCCCCCC)cc2)cc1 | 35.2
O=C1CN(C(=O)COC(=O)c2ccc(Br)o2)c2ccccc2N1 | 56.5
CC(C)Sc1nc2c(c(=O)n(C)c(=O)n2C)n1Cc1ccc(Cl)cc1 | 0.504
NC(=O)CCCn1c(C(=O)c2ccc(Cl)cc2)c2ccc([N+](=O)[O-])cc2[n+]1[O-] | 23.4
O=C(NC(=S)NNC(=O)c1cnccn1)c1ccc(Cl)cc1 | 16.4
C=CC[n+]1ccc(/C=C2\C=Cc3cc(C)ccc3N2CC)c2ccccc21 | 22.1
CC1CN(C(=O)/C=C/c2ccc3c(c2)OCO3)CC(C)O1 (stereo unspecified) | -11.8
O=c1c2c(-c3ccccc3)csc2nc2c3ccccc3c(NCCN3CCOCC3)nn12 | 24.3
O=[N+]([O-])c1ccc(-n2cnc3ccccc32)c([N+](=O)[O-])c1 | 25.6

Source: PubChem BioAssay AID1159583 (ICCB-Longwood Screening Facility, Harvard Medical School, 2016)
